The source gives no read counts; variants with many changes may rest on few reads.

The text below walks through data of the RNAGym collection of RNA variant scans (doi:10.7554/elife.90254).

The labels stand for the following.
B1: LINE1-mini (parent)
chain: GGCAGAGCUCAACACAGCGUGGCAAAGUGGCUGUGGCUAGACUGCC

In this data set the parent is B1. Description: self-cleavage, relative activity (ratio to wild type); higher = more cleavage; in vitro, sequencing; the parent is a self-cleaving ribozyme.
With G2U A12G G21C A24U C31A, the self-cleavage was 0.03. Turning to G2U G7U G17A U34A C42A, the self-cleavage worked out at 0.

Regarding G2U C15G A25U G27A U38G, the self-cleavage turned out to be 0.01. With G2U A6U C8G U9A C23U G44C C46U, the self-cleavage worked out at 0.03. G2U A12G G17A G36A U38G: the self-cleavage was found to be 0.01.

In the case of G2U A11U G17C G36C, the self-cleavage was determined as 0.01.

Turning to G2U C3U G17A G21U U43G C46A, the self-cleavage was 0.02. Turning to G2U U9G G19A U38A C42A G44A, the self-cleavage amounted to 0. As for G2C U32C U38C, the figure is 0.04; as for G2U C15A U38G, 0.03.

Take G2U C13G G21U: the self-cleavage stood at 0.02.

Regarding G2U A4U G5A C18U G29A U34A C46A, the self-cleavage came to 0.02.

With G2U A4G C10A G35A, the self-cleavage was 0.02.

With G2U A14U G40A, the self-cleavage worked out at 0.03. Consider G2U U9G U20A C23U A25C C37A, for which the self-cleavage is 0.12.

G2U G22U G33U G44A: the self-cleavage amounted to 0.03. Consider G2U C8A U9G A24C A26U, for which the self-cleavage amounted to 0.05. For G2U C13U G21U C45U, the self-cleavage was 0.05. For C3A A4U A6U C10A C18U G30A C31G, the self-cleavage is 0.02. For G2U C8G U9A U20A, the self-cleavage is 0.04.

As for G2U C10A C13G G17C G22C, the self-cleavage is 0.01.

Take G2U C3G A11U: the self-cleavage was found to be 0.02.

Consider G2U C8A G22C, for which the self-cleavage was 0.02.

As for G2U C15G G17C A25U, the self-cleavage worked out at 0.02. As for G2U C13A G19U U28G U43C C45U, the figure is 0.01; as for G2U C15G C37U C45U, 0.01. As to G2U G5C A16U C18A G33C, the self-cleavage worked out at 0.01. The result for G2U G30U C45U reads 0.03. As for G2U G7U G19A G21A G29C U34C, the self-cleavage was 0. Consider G2U G5A G30A G33A, for which the self-cleavage was 0.02. As for G2U U9A C15A, the self-cleavage amounted to 0.05.

G2U U20G G21U: the self-cleavage came to 0.08. On to G2U C23G A26U C46U, for which the self-cleavage came out at 0.01. On to G2U G19A G35C A39C, for which the self-cleavage is 0.04. Take G2U C23G A39G: the self-cleavage is 0.02. The result for G2U A11G G27U reads 0.03; that for G2U A4C G17U G22A A41C C45A, 0.01; that for G2C U20C C23A A24C G27C G36U, 0.02. For G2U U9A C18U C23U, the self-cleavage is 0.02. The result for G2U C13A G44U reads 0.04; that for G2U G33C G44U C46G, 0.02; that for G2U G17U C18G U20C G21A, 0.04. Regarding G2U U9G C10A C13A A14C, the self-cleavage worked out at 0.02. On to G2U A24C C31U A39G, for which the self-cleavage worked out at 0. As to G2U G7A C13G C31A, the self-cleavage came out at 0.01.

Regarding G2U C18G G33C A39U C46A, the self-cleavage is 0.01. G2U G5U G7A A11G C15U G40A C45U: the self-cleavage amounted to 0.02. For G2U U38C C42U, the self-cleavage was determined as 0.02. Take G2U C3U G21C C37U: the self-cleavage was determined as 0.02. G2U C31A U34A: the self-cleavage worked out at 0.03.

In the case of G2U A6U A14G U20G, the self-cleavage came to 0.06. The result for G2U C10U C31A A41U reads 0.01. On to G2U C8G C13G A24U G30U C42G, for which the self-cleavage worked out at 0.03. As for G2U C8U A25G A26U U34A G35A C42A, the figure is 0.06; as for G2U C13U A16C C18G C42U, 0.01. In the case of G2C U20A A26G U34A G35U C45A C46U, the self-cleavage worked out at 0.

In the case of G2U C10G A14U A24U C31A G36A G44A, the self-cleavage turned out to be 0.01. The result for G2U G5C U28A reads 0.02; that for G2U A6C C18G G29C, 0.01. As for G2U A11U A25C, the self-cleavage is 0.03. On to G2U A6C C8U C31A, for which the self-cleavage came to 0.07. The result for G2U G5A G21U C23U G35C G40C reads 0.08.

In the case of G2U G27A G29C U32G, the self-cleavage turned out to be 0.02.

Turning to G2U U9G C15U G29A, the self-cleavage worked out at 0.05. Regarding G2U C15A G17A C18A U28C G29U G40U, the self-cleavage worked out at 0.01. As for G2U C13U G17U G36U, the figure is 0.1; as for G2U C31A C42G, 0.02; as for G2U G21A G27U G44A, 0.23. For G2U A26U G40C C42U, the self-cleavage is 0.01. Take C3A A4C U43A: the self-cleavage was 0.14. As to G2U C8A A11U A16U A24G U32A G44U, the self-cleavage is 0.01. For G2U A11C A24U A25C G33C, the self-cleavage is 0. G2U A24G G40A: the self-cleavage was 0.06. As for G2U A4G C31G G44U, the self-cleavage was 0.04. As to G2U A25G C46U, the self-cleavage came out at 0.04. Turning to C3A A4G G33A C42U, the self-cleavage worked out at 0.1. On to C3A A4C G19C G27C A39G C46G, for which the self-cleavage turned out to be 0.01. As for G2U A4C A16U G21U, the self-cleavage came to 0.06. G2U C3G C15G A24G C45U: the self-cleavage was 0.01. The result for G2U A4U A6C reads 0.03; that for G2U G35A U43A, 0.05; that for G2C U32A U34C C46U, 0.06.

As to C3A A4C G21C, the self-cleavage stood at 0.05.

For G2U A39U U43A, the self-cleavage was determined as 0.03. For the variant G2U G5U G17C G21C C37A, the self-cleavage was determined as 0.04.

For G2U G21A A25U G27A A41G, the self-cleavage came out at 0.02. For the variant G2U U38A G40C U43G, the self-cleavage stood at 0.03. As for C3A A4G C8U G40A G44U, the figure is 0.09. Take G2U C13U A24G G27A U38C: the self-cleavage turned out to be 0.06. Regarding G2U G17A C18G G19A, the self-cleavage was 0. As for G2U G7U G44C, the self-cleavage amounted to 0.04.

With G2U U20G G21U C31A, the self-cleavage was 0.02. Turning to G2U A14G C15G G19A G22A G29U, the self-cleavage was 0.02. On to G2U G5A A6G U9G G17U G30C, for which the self-cleavage was found to be 0.03. On to G2U A4G G21U G30U, for which the self-cleavage is 0.04. For G2U G5U C10A A11C C23A, the self-cleavage was found to be 0.01. The result for G2U C3A U32C G35C reads 0.09.

Take G2U G7U C18G U28A C31U U32G G40A: the self-cleavage was found to be 0.03.

As for G2U C10A A11G, the self-cleavage came to 0.01.

For G2U G21U G29U, the self-cleavage amounted to 0.09. For G2U A26C G30A C37G A41U, the self-cleavage is 0.01.

As for G2U A16C G27U U34A, the self-cleavage is 0.02.

As for G2U G5A G27U A39U C46G, the self-cleavage was found to be 0.04. On to G2U A14C C23U A26U U43C G44U, for which the self-cleavage worked out at 0.01. In the case of G2U C10U A26U, the self-cleavage is 0.02. With C3A A4G C13U U20G G30A, the self-cleavage was determined as 0.04. As for G2U A25G G27U, the self-cleavage was found to be 0.05.

As for G2U C3G A12U A26C A41G, the self-cleavage is 0.04. Regarding G2U C13G C15G A25U G33C, the self-cleavage turned out to be 0.02. On to G2U G5U C46U, for which the self-cleavage is 0.03. Consider G2U A6C A14U, for which the self-cleavage stood at 0.03. Turning to G2U A6G G7C C15U U32G, the self-cleavage came to 0.01.

As to G2U C3U G29A, the self-cleavage was 0.07.

As to G2U G5A C23U C31A, the self-cleavage stood at 0.03.

As for G2U A16C G19U G30A U34A, the self-cleavage was 0.01. Take G2U C15G G33C: the self-cleavage was 0.02.

In the case of G2U U9A C10A G22A G30U U34G U38A, the self-cleavage stood at 0.01.

G2U A6G A11C C45U: the self-cleavage was found to be 0.01.

G2U C13G G19A: the self-cleavage was 0.13. G2U A16C C37A: the self-cleavage came to 0.02. G2U C8G A12C A25G: the self-cleavage stood at 0.01. Consider G2U C10A C31A, for which the self-cleavage was determined as 0. On to G2U G29A C45A, for which the self-cleavage worked out at 0.39. As to G2U A14G G19A G27A G36A A39C C45A, the self-cleavage worked out at 0.03.

Turning to G2U G19U U28G, the self-cleavage was determined as 0.03. For G2U C10G G35C, the self-cleavage stood at 0. Turning to G2U U32G G44A, the self-cleavage stood at 0.02. G2U G19U G36U: the self-cleavage turned out to be 0.04. Consider G2U C3G A41C, for which the self-cleavage came out at 0.12.

Take G2U A11C U28C C31G: the self-cleavage amounted to 0.01. For the variant G2U A11C C15G U28A C45A, the self-cleavage turned out to be 0. As to G2U C3G G30A, the self-cleavage is 0.07. G2U C31A G36C C42U: the self-cleavage worked out at 0.02. The result for G2U G30A U38A reads 0.03. As for G2U C10G G19A U28G U43C, the self-cleavage turned out to be 0.01. On to G2U U9C G19C C42A C45G, for which the self-cleavage came out at 0.04.

Consider G2U A12C G35A, for which the self-cleavage amounted to 0.04. Take G2U G22C G35A C46U: the self-cleavage was 0.03.

Regarding G2U A4U C15U A26U G30U C37G U38A, the self-cleavage amounted to 0.05. Turning to C3A A4C G19C G30A G36C, the self-cleavage amounted to 0.13. Turning to G2U C13A C42A, the self-cleavage stood at 0.1. As to G2C U32A G35C C45A, the self-cleavage is 0.01.

For the variant G2U C18G U28A C37A C42G, the self-cleavage was 0.01. As for C3A A4U A16U, the figure is 0.25.

Regarding G2U C18G G21C C37U C42A, the self-cleavage stood at 0.03.

Turning to G2U A6C A24C, the self-cleavage turned out to be 0.01. As to G2U C3G C13U A14U A25G C42A, the self-cleavage amounted to 0.06. G2U C18G G22U: the self-cleavage stood at 0.03. As for G2U G7A A12C, the self-cleavage turned out to be 0.06. Regarding G2U U9G C42U, the self-cleavage amounted to 0.02. For the variant G2U A6G C8U C10U G44C, the self-cleavage was 0. Turning to G2U C15G C18G, the self-cleavage amounted to 0.03. As for G2U G17C G35A, the self-cleavage is 0.01. Turning to G2U G7U C31G C37A, the self-cleavage is 0.01. The result for G2U C13U G17U reads 0.19; that for G2U G5U C15G C37A, 0.01. G2U C8G G22A U38A: the self-cleavage came to 0.01. As to G2U C3A C46A, the self-cleavage came out at 0.06. With G2U U9C A41U, the self-cleavage is 0.02. For G2U C13A G17A C18A U20C G36U, the self-cleavage amounted to 0.06. The result for G2U U20A U34A U43C reads 0.01. Regarding G2U C15A G17U G21C U38G, the self-cleavage amounted to 0.02. As for G2U A25C G40C C46A, the self-cleavage is 0.03.

Consider G2C U38A C46A, for which the self-cleavage was 0.04.

In the case of G2U A6G U9G A39C C42U, the self-cleavage stood at 0.02. Regarding G2U A16U A25G G27C U32C, the self-cleavage turned out to be 0.04. G2U A24U G44A: the self-cleavage is 0.19.
